{"source": "PubChem BioAssay AID1468", "about": "(National Center for Advancing Translational Sciences (NCATS), 2008)", "note": "Values joined by “and” are separate entries in the source; they are usually repeats but may differ in a detail not shown here. Identical values can stand only once. The whole screen tested about 280,000 compounds, of which about 1,100 (0.39%) were called active. Inconclusive means that the source gave no clear call. Such entries were picked first, then a sample of the others. The call rests on the fitted dose curve; in most records, active means well fitted inhibition curve with a large enough effect; inconclusive means small, poorly fitted or top-dose-only effect, or effect the other way; inactive means flat fitted curve, though single readings scatter. Where the call is inconclusive, the potency comes from a doubtful curve fit. On the % scale 0 is the no-effect control and ±100 the full control effect; potency means the concentration at half of the fitted maximal effect; tags describe the fitted curve by direction and shape.", "data": [{"molecular_target": "Microtubule-associated protein tau (Homo sapiens) (UniProt P10636)", "sequence (P10636 whole entry, looked up)": "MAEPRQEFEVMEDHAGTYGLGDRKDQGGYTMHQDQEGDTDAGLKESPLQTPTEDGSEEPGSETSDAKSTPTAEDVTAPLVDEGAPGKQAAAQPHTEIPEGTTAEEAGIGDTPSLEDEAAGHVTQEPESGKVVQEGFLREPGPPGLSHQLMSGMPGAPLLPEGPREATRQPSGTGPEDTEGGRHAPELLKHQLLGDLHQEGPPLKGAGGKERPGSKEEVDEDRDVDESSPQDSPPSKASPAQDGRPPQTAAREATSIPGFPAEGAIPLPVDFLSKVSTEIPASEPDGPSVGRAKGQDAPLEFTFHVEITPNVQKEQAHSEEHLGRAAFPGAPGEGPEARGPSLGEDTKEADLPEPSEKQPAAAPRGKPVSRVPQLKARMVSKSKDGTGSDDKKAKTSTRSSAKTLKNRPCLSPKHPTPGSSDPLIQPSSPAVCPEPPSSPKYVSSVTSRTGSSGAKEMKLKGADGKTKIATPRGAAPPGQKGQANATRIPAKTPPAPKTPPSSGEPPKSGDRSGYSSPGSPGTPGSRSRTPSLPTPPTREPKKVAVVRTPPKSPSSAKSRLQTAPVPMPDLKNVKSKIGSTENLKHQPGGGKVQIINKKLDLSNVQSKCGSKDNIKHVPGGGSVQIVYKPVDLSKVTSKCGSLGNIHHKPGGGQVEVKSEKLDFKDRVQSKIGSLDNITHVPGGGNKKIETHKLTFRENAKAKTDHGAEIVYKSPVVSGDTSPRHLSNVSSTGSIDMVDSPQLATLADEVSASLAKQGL", "test": "qHTS for Inhibitors of Tau Fibril Formation, Fluorescence Polarization; further: nearly all actives have a fitted effect of over 55% in size", "settings": "K18 P301L tau heparin fibrillization, Alexa594 FP, 6 h; series mostly up to 57.7 µM; activity, negative = inhibition: at the top concentration", "how_it_was_run": "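Compound effects on tau fibrillization are measured by Alexa 594 fluorescence polarization (ex 555, em 632 nm). K18 P301L tau is used at 15 uM with 0.24 uM labeled tracer, and 20 uM heparin induces aggregation over 6 hr at 37 C.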", "values": [{"smiles": "COc1cc2c(C(=O)N3CCN(C4CCCCC4)CC3)cn(CC(C)C)c(=O)c2cc1OC", "Potency": "inconclusive: 17.8 µM [inhibitor, single point]"}, {"smiles": "O=C(Cn1cc(S(=O)(=O)N2CCN(c3ccccc3F)CC2)c2ccccc2c1=O)Nc1ccc(F)cc1Cl", "Potency": "inconclusive: 17.8 µM [inhibitor, partial curve, poor fit]"}, {"smiles": "CC(C)(C)OC(=O)NCCc1nnc(SCC(=O)Nc2ccc(Br)cc2)o1", "activity, negative = inhibition": "inactive: -10.5%"}, {"smiles": "CCOc1ccc(NS(=O)(=O)c2ccc(NS(=O)(=O)c3ccccc3)cc2)cc1", "Potency": "inconclusive: 3.55 µM [inhibitor, partial curve, poor fit]"}, {"smiles": "Cc1ccc(-c2nn3c(=O)cc(CN4CCN(C(=O)c5ccc(C(C)(C)C)cc5)CC4)nc3s2)cc1", "activity, negative = inhibition": "inactive: 4.2%"}, {"smiles": "COC(=O)c1c(NC(=O)CC2SC(N)=NC2=O)sc2c1CCC(C(C)(C)C)C2", "note": "(configuration not stated)", "Potency": "inconclusive: 14.1 µM [inhibitor, partial curve, poor fit]"}, {"smiles": "COc1cc(/C=C2/C(=O)NN(c3cccc(C)c3)C2=O)cc([N+](=O)[O-])c1O", "activity, negative = inhibition": "inactive: -0.382%"}, {"smiles": "Cc1ccc2nc(NC(=O)c3ccc(OCC4CCCO4)cc3)sc2c1", "note": "(configuration not stated)", "activity, negative = inhibition": "inactive: 6.42%"}, {"smiles": "CCCSCCCNC(=O)CN1C(=O)CCn2nc(-c3cn(C)c4ccccc34)cc21", "Potency": "inconclusive: 11.2 µM [activator, partial curve]"}, {"smiles": "C[C@](N)(Cc1ccc(O)c(O)c1)C(=O)O", "Potency": "inconclusive: 5.62 µM [inhibitor, full curve] and inconclusive: 7.08 µM [inhibitor, single point]"}, {"smiles": "Cc1cc(F)ccc1NC(=O)c1ccc(NS(=O)(=O)c2cc(C(C)(C)C)ccc2C)cc1", "Potency": "inconclusive: 17.8 µM [inhibitor, partial curve]"}, {"smiles": "COc1ccc(Cl)cc1NC(=O)Cn1nnc(C(=O)NCc2ccc3c(c2)OCO3)c1N", "Potency": "inconclusive: 7.94 µM [inhibitor, full curve, poor fit]"}, {"smiles": "O=C(O)c1ccc2c(c1)C1C=CCC1C(c1ccncc1)N2", "note": "(configuration not stated)", "Potency": "inconclusive: 22.4 µM [inhibitor, partial curve]"}, {"smiles": "Cc1ccc(SCCC(=O)Nc2ccc(Br)c(C)c2)cc1", "Potency": "inconclusive: 10 µM [inhibitor, partial curve]"}, {"smiles": "COC(=O)CSc1nc2c(c(-c3ccc(O)cc3)c1C#N)CCCC2", "Potency": "inconclusive: 39.8 µM [inhibitor, single point]"}, {"smiles": "COc1ccc(S(=O)(=O)NCCc2sc(-c3ccccc3)nc2C)cc1F", "Potency": "inconclusive: 0.447 µM [inhibitor, partial curve, poor fit]"}, {"smiles": "CN(CCC#N)C(=O)COC(=O)c1c2c(nc3ccccc13)/C(=C/c1ccco1)CC2", "Potency": "inconclusive: 20 µM [inhibitor, single point]"}, {"smiles": "CN(CC(=O)OCC(N)=O)S(=O)(=O)c1ccc(Cl)cc1", "activity, negative = inhibition": "inactive: 3.77%"}, {"smiles": "O=C(Nc1ccc(NC(=S)NC(=O)c2ccccc2F)cc1)c1cccs1", "Potency": "inconclusive: 39.8 µM [inhibitor, single point]"}, {"smiles": "Cc1ccc(NC(=O)c2cc(=O)n(Cc3ccccc3)c(=O)[nH]2)cc1C", "Potency": "inconclusive: 44.7 µM [inhibitor, single point]"}, {"smiles": "COCCNC(=O)CN(c1cc(Cl)ccc1OC)S(C)(=O)=O", "Potency": "inconclusive: 2.51 µM [inhibitor, partial curve, poor fit]"}, {"smiles": "CCn1ccc2cc(S(=O)(=O)N3CCCN(C(=O)Nc4ccc(C)cc4)CC3)ccc21", "activity, negative = inhibition": "inactive: -3.25%"}, {"smiles": "Cc1cccc(CNc2ncnc3ccc(-c4ccoc4)cc23)c1", "Potency": "inconclusive: 11.2 µM [inhibitor, partial curve, poor fit]"}, {"smiles": "COC(=O)c1sccc1N/N=C(\\C)c1ccc(F)c(Cl)c1", "Potency": "inconclusive: 0.562 µM [inhibitor, full curve, poor fit]"}, {"smiles": "NC(=O)Cn1c(=O)n(-c2ccc(F)c(Cl)c2)c(=O)c2sc3ccccc3c21", "activity, negative = inhibition": "inactive: -9.13%"}, {"smiles": "O=C(CSc1nc2ccccc2c(=O)n1-c1ccccc1)N1CCC1", "activity, negative = inhibition": "inactive: -2.34%"}, {"smiles": "CCC(=O)OCCNc1cc(Sc2nc3ccccc3[nH]2)c2nonc2c1[N+](=O)[O-]", "Potency": "inconclusive: 39.8 µM [inhibitor, single point]"}, {"smiles": "CC(C)=CCC/C(C)=C/Cc1c(O)ccc(C(=O)/C=C/c2ccc(O)cc2)c1O", "Potency": "active: 7.94 µM"}, {"smiles": "Cn1c(=O)c2c(nc(SCC(=O)Nc3ccc(F)cc3)n2Cc2ccc(Cl)cc2)n(C)c1=O", "Potency": "inconclusive: 28.2 µM [inhibitor, single point]"}, {"smiles": "CCOC(=O)Cc1csc(NC(=O)/C=C\\c2ccccc2Cl)n1", "Potency": "inconclusive: 44.7 µM [inhibitor, single point]"}, {"smiles": "COc1ccc(-c2nc(NC(=O)c3nc4nccc(C)n4n3)sc2C)cc1", "Potency": "inconclusive: 14.1 µM [inhibitor, partial curve]"}, {"smiles": "O=C(Nc1ccc(N2CCCCC2)c(Cl)c1)c1ccc(N2CCOCC2)c([N+](=O)[O-])c1", "Potency": "inconclusive: 8.91 µM [activator, partial curve]"}, {"smiles": "CCOCCCn1c(=S)[nH]c2ncccc2c1=O", "activity, negative = inhibition": "inactive: -7.16%"}, {"smiles": "Cc1cccc2cc(CN(Cc3cccs3)S(=O)(=O)c3ccc4c(c3)OCCO4)c(=O)[nH]c12", "Potency": "inconclusive: 44.7 µM [inhibitor, single point]"}, {"smiles": "CCc1ccc(OCC(=O)Nc2c(C(=O)c3ccccc3)oc3ccccc23)cc1", "Potency": "inconclusive: 28.2 µM [inhibitor, single point]"}, {"smiles": "O=[N+]([O-])c1ccc(Sc2cccc3cccnc23)c([N+](=O)[O-])c1", "activity, negative = inhibition": "inactive: -6.41%"}, {"smiles": "Cc1ccc(C)c(-n2c(N)c(C(N)=O)sc2=S)c1", "activity, negative = inhibition": "inactive: -5.51%"}, {"smiles": "COc1cccc(NC(=O)c2nnn(Cc3cccc(C(F)(F)F)c3)c2N)c1", "Potency": "inconclusive: 11.2 µM [inhibitor, partial curve, poor fit]"}, {"smiles": "CC(=O)C1=C(O)C(=O)N(C)C1c1ccccc1[N+](=O)[O-]", "note": "(configuration not stated)", "Potency": "inconclusive: 25.1 µM [inhibitor, partial curve]"}, {"smiles": "COc1ccc2c(c1)C(=C(C#N)C#N)C(=O)N2CCc1ccccc1", "Potency": "inconclusive: 31.6 µM [inhibitor, single point]"}, {"smiles": "CC(C)NC(=S)N/N=C/c1cc(Br)ccc1O", "activity, negative = inhibition": "inactive: 14.4%"}, {"smiles": "O=C(N/N=C/c1cccc(Oc2ccccc2)c1)c1cccc(Br)c1", "Potency": "inconclusive: 14.1 µM [inhibitor, partial curve]"}, {"smiles": "CCn1c(C)nc2cc(C(=O)N/N=C/c3ccc(N4CCOCC4)cc3)ccc21", "activity, negative = inhibition": "inactive: 4.47%"}, {"smiles": "O=C(NCc1cccs1)c1cc2c(s1)-c1ccccc1OC2", "Potency": "inconclusive: 17.8 µM [inhibitor, partial curve, poor fit]"}, {"smiles": "CCOc1ccc(NC(=O)Cn2c(=O)c(CNc3ccc(OC)cc3)cc3ccc(OC)cc32)cc1", "Potency": "inconclusive: 2.82 µM [activator, full curve, poor fit]"}, {"smiles": "COc1ccccc1CN(CC(=O)NCc1ccco1)C(=O)CNS(=O)(=O)c1ccccc1", "activity, negative = inhibition": "inactive: 1.15%"}, {"smiles": "O=C(NCc1n[nH]c(=S)n1-c1ccc(F)cc1)c1ccc(S(=O)(=O)N2CCOCC2)cc1", "Potency": "inconclusive: 14.1 µM [inhibitor, single point]"}, {"smiles": "CN(C)Cc1ccccc1-c1cncnc1NCc1cccs1", "activity, negative = inhibition": "inactive: 3.66%"}, {"smiles": "COc1ccc(C(=O)N2CCOCC2)cc1Br", "activity, negative = inhibition": "inactive: -9.09%"}, {"smiles": "CNS(=O)(=O)c1ccc2c(c1)NC(=O)C1CCCN21", "note": "(configuration not stated)", "Potency": "inconclusive: 25.1 µM [inhibitor, single point]"}, {"smiles": "CCOc1ccc(N2CC(NC(=O)c3cc4ccccc4o3)CC2=O)cc1", "note": "(configuration not stated)", "activity, negative = inhibition": "inactive: -7.69%"}, {"smiles": "COc1cccc(NC(=O)CSc2c(C)cnc3c2c(=O)n(C)c(=O)n3C)c1", "Potency": "inconclusive: 28.2 µM [inhibitor, single point]"}, {"smiles": "CCOc1ccc(S(=O)(=O)N(C(C)=O)c2ccc3oc(C)c(C(=O)OC)c3c2)cc1", "activity, negative = inhibition": "inactive: 1.63%"}, {"smiles": "Cc1ccc2nc(-c3ccc(NC(=O)CN4C(=O)c5ccccc5C4=O)cc3)sc2c1", "activity, negative = inhibition": "inactive: 5.89%"}, {"smiles": "Nc1c(NCc2ccccc2)c(=O)[nH]c(=O)n1Cc1ccccc1", "Potency": "inconclusive: 31.6 µM [inhibitor, partial curve]"}, {"smiles": "COc1ccccc1NS(=O)(=O)c1cc(NC(=O)C2CCC2)ccc1N1CCCCC1", "Potency": "inconclusive: 11.2 µM [inhibitor, partial curve]"}, {"smiles": "CC(C)(C)c1ccc(S(=O)(=O)/C=C\\C#N)cc1", "Potency": "inconclusive: 39.8 µM [inhibitor, single point]"}, {"smiles": "CCN(C(=O)CSc1nnnn1C)c1c(N)n(Cc2ccccc2)c(=O)[nH]c1=O", "Potency": "inconclusive: 3.55 µM [inhibitor, single point]"}, {"smiles": "CS(=O)(=O)c1ccc2nc(NC(=O)Nc3ccc(Cl)cc3)sc2c1", "activity, negative = inhibition": "inactive: -20%"}, {"smiles": "Nc1n[nH]c(=S)n1-c1ccc(Cl)cc1", "Potency": "inconclusive: 39.8 µM [inhibitor, single point]"}, {"smiles": "CCOc1ccc2c(O)csc2c1", "Potency": "inconclusive: 25.1 µM [inhibitor, single point]"}, {"smiles": "CCCOc1ccc(/C(O)=C2/C(=O)C(=O)N(CCCN3CCOCC3)C2c2ccncc2)cc1", "note": "(configuration not stated)", "Potency": "inconclusive: 22.4 µM [inhibitor, partial curve, poor fit]"}, {"smiles": "COc1ccc(C(=O)/C=C/Nc2ccc(S(=O)(=O)Nc3cccc(C(C)=O)c3)cc2)cc1", "Potency": "inconclusive: 11.2 µM [inhibitor, partial curve]"}, {"smiles": "S=C(NCCCc1ccccc1)Nc1ccccc1Cl", "Potency": "inconclusive: 15.8 µM [inhibitor, single point]"}, {"smiles": "CN(C)c1ccc(/C=N/NC(=S)NCc2ccccc2)cc1", "Potency": "inconclusive: 7.94 µM [activator, partial curve]"}, {"smiles": "Cc1ccc(C(=O)Nc2cc3cc(Cl)ccc3oc2=O)cc1", "activity, negative = inhibition": "inactive: -2.06%"}, {"smiles": "COC(=O)/C=C/c1ccc(C(=O)NCC(=O)N[C@@H](CCC(=O)OC)C(=O)N[C@@H](CC(C)C)C(N)=O)cc1", "activity, negative = inhibition": "inactive: -0.667%"}]}]}
